The source of these data is the supplement of paper PMC4967469.

A lower IC50 marks a more sensitive line; a limit (>, <) means that the fit lies beyond the doses tested. The AUC spans the tested range (256-fold, ending at the top dose) of the same fit; values near 1 show little effect. A top dose marked as inferred was derived from the fitted curves, not read from the paper. Some results are limits rather than exact numbers.

A word on the IC50: it is the concentration that gives 50% inhibition.

Compound in this experiment: C=CC(=O)Nc1cccc(Nc2nc(NC3CCC(N(C)C)CC3)nc3c2ncn3C(C)C)c1 [WZ3105]
The experiment in a line: Viability of human cancer cell lines after 72 h of drug (GDSC screen). To be noted: top dose inferred. Here is the method: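 Human cancer cell lines in 384-well plates, medium with 10% serum, drug for 72 h over a 256-fold dose range (nine 2-fold or five 4-fold steps up to the top dose). Adherent lines were fixed and stained with the nucleic acid dye Syto60, suspension lines read with resazurin; signal relative to control wells, capped at 0 and 100%. One two-parameter sigmoid per drug and line, fitted in a mixed model over all curves with the slope shared within a line.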

Turning to “IM-95 (stomach, adherent, top dose 1.28 µM)”, the AUC came to 0.782 and the IC50 came to 574 nM.

As for “IMR-5 (neuroblastoma, adherent, top dose 1.28 µM)”, the AUC is 0.565 and the IC50 was found to be 116 nM.

As to “IPC-298 (melanoma, adherent, top dose 1.28 µM)”, the AUC came out at 0.855 and the IC50 came to 996 nM.

On to “IST-MEL1 (melanoma, adherent, top dose 1.28 µM)”, for which the AUC amounted to 0.799 and the IC50 amounted to 754 nM.

“IST-MES1 (mesothelioma, adherent, top dose 1.28 µM)”: the AUC turned out to be 0.984 and the IC50 was above 1280 nM.

In the case of “IST-SL1 (small cell lung carcinoma, semi-adherent, top dose 1.28 µM)”, the AUC is 0.566 and the IC50 is 122 nM.

Turning to “IST-SL2 (small cell lung carcinoma, suspension, top dose 1.28 µM)”, the AUC was 0.791 and the IC50 stood at 570 nM.

For the cell line “J82 (bladder, adherent, top dose 1.28 µM)”, the AUC was found to be 0.986 and the IC50 is above 1280 nM.

For “JAR (urogenital system, adherent, top dose 1.28 µM)”, the AUC was 0.795 and the IC50 is 579 nM.

With “JEG-3 (urogenital system, adherent, top dose 1.28 µM)”, the AUC turned out to be 0.987 and the half-maximal inhibitory concentration (IC50) was above 1280 nM.

As to “JHH-1 (liver, adherent, top dose 1.28 µM)”, the AUC came to 0.783 and the IC50 turned out to be 591 nM.

In the case of “JHH-2 (liver, adherent, top dose 1.28 µM)”, the AUC worked out at 0.755 and the IC50 is 464 nM.

On to “JHH-4 (liver, adherent, top dose 1.28 µM)”, for which the AUC amounted to 0.987 and the IC50 was above 1280 nM.

Turning to “JHH-6 (liver, adherent, top dose 1.28 µM)”, the AUC amounted to 0.967 and the IC50 is above 1280 nM.

“JHH-7 (liver, adherent, top dose 1.28 µM)”: the AUC was determined as 0.985 and the IC50 is above 1280 nM.

As for “JHOS-2 (ovary, adherent, top dose 1.28 µM)”, the AUC was determined as 0.981 and the IC50 is above 1280 nM.

As for “JHOS-3 (ovary, adherent, top dose 1.28 µM)”, the AUC worked out at 0.892 and the IC50 was above 1280 nM.

On to “JHU-011 (head and neck, adherent, top dose 1.28 µM)”, for which the AUC was 0.724 and the half-maximal inhibitory concentration (IC50) came to 341 nM.

For “JHU-022 (head and neck, adherent, top dose 1.28 µM)”, the AUC is 0.913 and the IC50 was above 1280 nM.

Turning to “JIMT-1 (breast, adherent, top dose 1.28 µM)”, the AUC stood at 0.976 and the IC50 is above 1280 nM.

“JJN-3 (haematopoietic neoplasm, suspension, top dose 1.28 µM)”: the AUC is 0.661 and the IC50 was 204 nM.

“JM1 (B-cell lymphoma, suspension, top dose 1.28 µM)”: the AUC was determined as 0.733 and the IC50 stood at 328 nM.

As to “JSC-1 (B-cell lymphoma, suspension, top dose 1.28 µM)”, the AUC worked out at 0.6 and the IC50 is 150 nM.

For “JURL-MK1 (chronic myeloid leukaemia, suspension, top dose 1.28 µM)”, the AUC is 0.699 and the IC50 was found to be 289 nM.

Consider “JVM-2 (lymphoid neoplasm, suspension, top dose 1.28 µM)”, for which the AUC was 0.818 and the half-maximal inhibitory concentration (IC50) came to 941 nM.

As for “JVM-3 (lymphoid neoplasm, suspension, top dose 1.28 µM)”, the AUC amounted to 0.907 and the IC50 was above 1280 nM.

In the case of “JiyoyeP-2003 (Burkitt lymphoma, suspension, top dose 1.28 µM)”, the AUC came to 0.738 and the IC50 was 344 nM.

Take “K2 (melanoma, adherent, top dose 1.28 µM)”: the AUC is 0.88 and the IC50 is above 1280 nM.

As for “K5 (thyroid, adherent, top dose 1.28 µM)”, the AUC came to 0.987 and the IC50 was above 1280 nM.

Consider “K-562 (chronic myeloid leukaemia, suspension, top dose 1.28 µM)”, for which the AUC worked out at 0.621 and the IC50 came out at 170 nM.

Turning to “KALS-1 (glioma, adherent, top dose 1.28 µM)”, the AUC stood at 0.726 and the IC50 stood at 452 nM.

As for “KARPAS-45 (lymphoblastic leukaemia, suspension, top dose 10.24 µM)”, the AUC was 0.188 and the half-maximal inhibitory concentration (IC50) came to 93.7 nM.

For “KARPAS-231 (B-cell leukaemia, suspension, top dose 1.28 µM)”, the AUC amounted to 0.491 and the IC50 was 75.8 nM.

As for “KARPAS-299 (anaplastic large cell lymphoma, suspension, top dose 1.28 µM)”, the AUC worked out at 0.723 and the IC50 turned out to be 301 nM.

For the cell line “KARPAS-422 (B-cell lymphoma, suspension, top dose 1.28 µM)”, the AUC was 0.614 and the IC50 is 164 nM.

Regarding “KARPAS-620 (haematopoietic neoplasm, suspension, top dose 1.28 µM)”, the AUC worked out at 0.657 and the IC50 amounted to 203 nM.

For “KASUMI-1 (acute myeloid leukaemia, suspension, top dose 1.28 µM)”, the AUC amounted to 0.669 and the IC50 was determined as 237 nM.

For “KCL-22 (chronic myeloid leukaemia, suspension, top dose 1.28 µM)”, the AUC was 0.649 and the IC50 is 192 nM.

Turning to “KE-37 (lymphoblastic leukaemia, suspension, top dose 10.24 µM)”, the AUC was found to be 0.177 and the IC50 was found to be 96.2 nM.

On to “KELLY (neuroblastoma, adherent, top dose 1.28 µM)”, for which the AUC is 0.987 and the IC50 is above 1280 nM.

As to “KG-1 (acute myeloid leukaemia, suspension, top dose 1.28 µM)”, the AUC is 0.97 and the IC50 is above 1280 nM.

KGN (ovary, adherent, top dose 1.28 µM): the AUC is 0.914 and the IC50 was above 1280 nM.

Regarding “KINGS-1 (glioma, adherent, top dose 1.28 µM)”, the AUC came to 0.917 and the IC50 is above 1280 nM.

For “KLE (endometrium, adherent, top dose 1.28 µM)”, the AUC is 0.871 and the IC50 is above 1280 nM.

In the case of “KM12 (large intestine, adherent, top dose 10.24 µM)”, the AUC stood at 0.698 and the IC50 was found to be 2430 nM.

In the case of “KM-H2 (Hodgkin lymphoma, suspension, top dose 1.28 µM)”, the AUC amounted to 0.903 and the IC50 is 1240 nM.

“KMH-2 (thyroid, adherent, top dose 1.28 µM)”: the AUC was 0.769 and the IC50 was found to be 432 nM.

Regarding “KMOE-2 (acute myeloid leukaemia, suspension, top dose 1.28 µM)”, the AUC turned out to be 0.736 and the IC50 turned out to be 344 nM.

For “KMRC-1 (kidney, adherent, top dose 1.28 µM)”, the AUC turned out to be 0.983 and the half-inhibitory concentration (IC50) was above 1280 nM.

As to “KMRC-20 (kidney, adherent, top dose 1.28 µM)”, the AUC came to 0.985 and the half-inhibitory concentration (IC50) is above 1280 nM.

For the cell line “KMS-11 (myeloma, suspension, top dose 1.28 µM)”, the AUC came out at 0.878 and the IC50 turned out to be 979 nM.

With “KMS-12-BM (myeloma, suspension, top dose 1.28 µM)”, the AUC was determined as 0.589 and the concentration for half-maximal inhibition (IC50) amounted to 134 nM.

Consider “KNS-42 (glioma, adherent, top dose 1.28 µM)”, for which the AUC was determined as 0.952 and the IC50 was above 1280 nM.

“KNS-81-FD (glioma, adherent, top dose 1.28 µM)”: the AUC came out at 0.91 and the IC50 was above 1280 nM.

Take “KON (head and neck, adherent, top dose 1.28 µM)”: the AUC is 0.978 and the IC50 is above 1280 nM.

For “KOPN-8 (B-cell leukaemia, suspension, top dose 1.28 µM)”, the AUC was found to be 0.623 and the IC50 was 165 nM.

Take “KOSC-2 (head and neck, adherent, top dose 1.28 µM)”: the AUC amounted to 0.816 and the IC50 worked out at 752 nM.

As for “KP-2 (pancreas, adherent, top dose 1.28 µM)”, the AUC came out at 0.681 and the IC50 is 268 nM.

In the case of “KP-3 (pancreas, adherent, top dose 1.28 µM)”, the AUC was found to be 0.901 and the IC50 is above 1280 nM.

“KP-4 (pancreas, adherent, top dose 1.28 µM)”: the AUC stood at 0.765 and the IC50 turned out to be 449 nM.

Take “KP-N-YN (neuroblastoma, adherent, top dose 1.28 µM)”: the AUC came out at 0.911 and the IC50 is above 1280 nM.

As to “KP-N-YS (neuroblastoma, adherent, top dose 1.28 µM)”, the AUC stood at 0.782 and the IC50 worked out at 620 nM.

In the case of “KS-1 (glioma, adherent, top dose 1.28 µM)”, the AUC worked out at 0.601 and the IC50 came to 163 nM.

On to “KU812 (chronic myeloid leukaemia, suspension, top dose 1.28 µM)”, for which the AUC worked out at 0.574 and the IC50 is 125 nM.

As to “KU-19-19 (bladder, adherent, top dose 1.28 µM)”, the AUC is 0.815 and the IC50 stood at 704 nM.
